Laboratory results: patent US11542275B2, “Substituted imidazolidin-2-one derivatives as PRMT5 inhibitors” (Aurigene Discovery Technologies Limited, priority 2018, dated 2023)

Biological target: PRMT5/MEP50 Complex (Homo sapiens (Human), UniProt O14744)
Assay: PRMT5 inhibition based on TR-FRET assay
Type: biochemical
Details: 32 nM PRMT5:MEP50 complex, 50 nM Histone-H4 peptide, 1 μM SAM, 90 minutes at room temperature
Excerpt: Protein arginine methyltransferase 5 (PRMT5) is a type II arginine methyltransferase that catalyze mono- and symmetric demethylation on arginine residues of histone or non-histone proteins in presence of S-adenosylmethionine (AdoMet or SAM) a cofactor responsible for donating the methyl group. PRMT5 is reported to be overexpressed in several human cancers. To identify compounds that inhibit the PRMT5 and decrease its activity, a TR-FRET based assay has been established. Time-resolved fluorescence resonance energy transfer (TR-FRET) HTS assays are homogeneous proximity assays where the interaction of two dye-labeled binding partners is detected by the energy transfer between a donor and an acceptor dye, and the subsequent light emission by the acceptor dye. PRMT5 catalyzes Histone H4 peptide which is biotin tagged to the Lysine amino acid at carboxyl end, in presence of S-adenosyl-1-methionine (SAM) to methylate the peptide. The antibody specific to mono methylated H4 peptide (H4R3) with Ig conjugate binds to the methylated peptide, indirectly binding to the Europium lanthanide. SureLight Allophycocyanin-Streptavidin binds to the biotin tag of the peptide, therefore accepting the energy transferred from the Europium lanthanide. This energy transfer between Europium to SureLight Allophycocyanin is a direct measure of the activity/inhibition of the PRMT5 enzyme.
Assay buffer: 20 mM BICINE (pH 7.6), 25 mM NaCl, 2 mM DTT, 0.01% Tween-20 and 0.01% BSA.
The compound dilutions were prepared as 7.5% DMSO stock solutions in assay buffer. To 2 μL (7.5×) of test compound, 5 μL of PRMT5 enzyme prepared in assay buffer (Final concentration of 32 nM in 15 μL reaction volume) was added and allowed for 30 minutes pre-incubation time in a white polystyrene 384-well plate at room temperature. […] The plates were then read on Victor-3 with Excitation at 340 nm and Emissions collected at 615 and 665 nm in TR-FRET protocol. […]

| SMILES | IC50 [µM] |
| --- | --- |
| CC1(C(=O)N2CCC(c3ccc(CN4CCN(C[C@H](O)CN5CCc6ccccc6C5)C4=O)nc3)CC2)COC1 [Compound 53, (R)-1-(3-(3,4-dihydroisoquinolin-2(1H)-yl)-2-hydroxypropyl)-3-((5-(1-(3-methyloxetane-3-carbonyl)piperidin-4-yl)pyridin-2-yl)methyl)imidazolidin-2-one] | 0.018 |
| CN1CCC(c2ccc(CN3CCN(C[C@H](O)CN4CCc5ccccc5C4)C3=O)nc2)CC1 [Compound 47, (R)-1-(3-(3,4-dihydroisoquinolin-2(1H)-yl)-2-hydroxypropyl)-3-((5-(1-methylpiperidin-4-yl)pyridin-2-yl)methyl)imidazolidin-2-one] | 0.085 |
| O=C1N(Cc2ccc(C3CCOCC3)nn2)CCN1C[C@H](O)CN1CCc2ccccc2C1 [Compound 51, (R)-1-(3-(3,4-dihydroisoquinolin-2(1H)-yl)-2-hydroxypropyl)-3-((6-(tetrahydro-2H-pyran-4-yl)pyridazin-3-yl)methyl)imidazolidin-2-one] | 0.066 |
